The list shows a part of the results. Rule as the data show it: active = 3.2 or more and inactive = the rest. The signal is at background level for most entries.
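Also: displayed peptides selected on beads carrying the immobilized SH2 domain, with library peptides lacking any tyrosine serving as negative controls.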

The first test concerns the target SHP2 C-SH2 domain E139D. Description: enrichment score (SH2-bound / input frequency) (ratio); bacterial display of known human phosphotyrosine sites (pTyr-Var adds point mutants) read by sequencing; higher = stronger binding; tyrosines were phosphorylated by kinases first. As to conditions: peptide library: Human pTyr.
On to TKANQELYTTHGLIK [CC105_HUMAN_372_YA], for which the enrichment score is inactive: 0.924.

As to KRNKPTVYGVSPNYD [ABL1_HUMAN_226], the enrichment score was inactive: 0.904.

For the molecule GSGPQNQYGNVLSLP [CD19_HUMAN_348], the enrichment score was inactive: 0.788.

Turning to GGQYGEVYEGVWKKY [ABL1_HUMAN_257], the enrichment score is inactive: 0.585.

Take NIIFGVSYDEYRYRS [CFTR_HUMAN_512]: the enrichment score is inactive: 1.33.

Take VDTSQVLYEWEQGFS [CTNB1_HUMAN_64]: the enrichment score is inactive: 0.693.

Take EPGEQPIYMNFSEPL [CLM7_HUMAN_188]: the enrichment score was inactive: 0.85.

Consider GKGHDGLYQGLSTAT [CD3Z_HUMAN_142], for which the enrichment score was inactive: 0.721.

Turning to KDREDDQYSHLQGNQ [CD3G_HUMAN_171], the enrichment score is inactive: 0.727.

As to TPLTPSQYASGSKAE [CENPF_HUMAN_158_YA], the enrichment score was inactive: 0.762.

With EAEDENLYEGLNLDD [CD79A_HUMAN_188_YA], the enrichment score was inactive: 1.12.

As to AEIGEGAYGKVFKAR [CDK6_HUMAN_24], the enrichment score was inactive: 0.841.

Consider DWGLAEFYHPGQEYN [CSNK2A1_HUMAN_182], for which the enrichment score is inactive: 0.828.

For the molecule NIIFGVSYDEARARS [CFTR_HUMAN_512_YA], the enrichment score is inactive: 0.622.

GHLGSEEYDVPPRLS [CBLB_HUMAN_665]: the enrichment score was inactive: 0.47.

Regarding DVNIRNTYNQTALDI [CSKI2_HUMAN_253], the enrichment score was inactive: 0.626.

As to GMAEAITYADLRFVK [CD72_HUMAN_7], the enrichment score was inactive: 3.11.

For EYEDENLYEGLNLDD [CD79A_HUMAN_188], the enrichment score was inactive: 1.28.

In another test the target is SHP2 C-SH2 domain wild-type. The description is as above. Conditions: peptide library: Human pTyr.
On to TKANQELYTTHGLIK [CC105_HUMAN_372_YA], for which the enrichment score was inactive: 0.701.

On to KRNKPTVYGVSPNYD [ABL1_HUMAN_226], for which the enrichment score was inactive: 0.924.

Turning to GSGPQNQYGNVLSLP [CD19_HUMAN_348], the enrichment score was inactive: 0.649.

Regarding GGQYGEVYEGVWKKY [ABL1_HUMAN_257], the enrichment score was inactive: 0.658.

On to NIIFGVSYDEYRYRS [CFTR_HUMAN_512], for which the enrichment score was inactive: 1.59.

On to VDTSQVLYEWEQGFS [CTNB1_HUMAN_64], for which the enrichment score is inactive: 0.58.

Turning to EPGEQPIYMNFSEPL [CLM7_HUMAN_188], the enrichment score was inactive: 0.635.

Take GKGHDGLYQGLSTAT [CD3Z_HUMAN_142]: the enrichment score was inactive: 0.731.

Consider KDREDDQYSHLQGNQ [CD3G_HUMAN_171], for which the enrichment score was inactive: 0.591.

Take TPLTPSQYASGSKAE [CENPF_HUMAN_158_YA]: the enrichment score is inactive: 0.55.

Regarding EAEDENLYEGLNLDD [CD79A_HUMAN_188_YA], the enrichment score is inactive: 1.25.

AEIGEGAYGKVFKAR [CDK6_HUMAN_24]: the enrichment score is inactive: 0.823.

In the case of DWGLAEFYHPGQEYN [CSNK2A1_HUMAN_182], the enrichment score was inactive: 0.648.

NIIFGVSYDEARARS [CFTR_HUMAN_512_YA]: the enrichment score was inactive: 0.532.

GHLGSEEYDVPPRLS [CBLB_HUMAN_665]: the enrichment score was inactive: 0.386.

Take DVNIRNTYNQTALDI [CSKI2_HUMAN_253]: the enrichment score was inactive: 0.529.

Take GMAEAITYADLRFVK [CD72_HUMAN_7]: the enrichment score was active: 4.81.

As for EYEDENLYEGLNLDD [CD79A_HUMAN_188], the enrichment score was inactive: 1.18.

For the next test, the target named is SHP2 N-SH2 domain L43F. The test is described as above. As to conditions: peptide library: Human pTyr.
TKANQELYTTHGLIK [CC105_HUMAN_372_YA]: the enrichment score is inactive: 0.877.

For KRNKPTVYGVSPNYD [ABL1_HUMAN_226], the enrichment score is inactive: 0.99.

Regarding GSGPQNQYGNVLSLP [CD19_HUMAN_348], the enrichment score was inactive: 0.542.

For the molecule GGQYGEVYEGVWKKY [ABL1_HUMAN_257], the enrichment score is inactive: 0.75.

For the molecule NIIFGVSYDEYRYRS [CFTR_HUMAN_512], the enrichment score was inactive: 1.03.

Consider VDTSQVLYEWEQGFS [CTNB1_HUMAN_64], for which the enrichment score is inactive: 0.57.

As for EPGEQPIYMNFSEPL [CLM7_HUMAN_188], the enrichment score is inactive: 0.744.

On to GKGHDGLYQGLSTAT [CD3Z_HUMAN_142], for which the enrichment score is inactive: 0.626.

On to KDREDDQYSHLQGNQ [CD3G_HUMAN_171], for which the enrichment score is inactive: 0.62.

Regarding TPLTPSQYASGSKAE [CENPF_HUMAN_158_YA], the enrichment score is inactive: 0.856.

With EAEDENLYEGLNLDD [CD79A_HUMAN_188_YA], the enrichment score was inactive: 1.26.

As for AEIGEGAYGKVFKAR [CDK6_HUMAN_24], the enrichment score was inactive: 0.813.

As to DWGLAEFYHPGQEYN [CSNK2A1_HUMAN_182], the enrichment score was inactive: 0.689.

On to NIIFGVSYDEARARS [CFTR_HUMAN_512_YA], for which the enrichment score is inactive: 0.655.

Turning to GHLGSEEYDVPPRLS [CBLB_HUMAN_665], the enrichment score is inactive: 0.451.

Consider DVNIRNTYNQTALDI [CSKI2_HUMAN_253], for which the enrichment score was inactive: 0.583.

With GMAEAITYADLRFVK [CD72_HUMAN_7], the enrichment score is active: 9.34.

Consider EYEDENLYEGLNLDD [CD79A_HUMAN_188], for which the enrichment score is inactive: 1.06.

The next test concerns the target SHP2 N-SH2 domain T42A. The description is as above. Conditions: peptide library: Human pTyr.
Regarding TKANQELYTTHGLIK [CC105_HUMAN_372_YA], the enrichment score is inactive: 0.793.

As for KRNKPTVYGVSPNYD [ABL1_HUMAN_226], the enrichment score was inactive: 0.996.

As to GSGPQNQYGNVLSLP [CD19_HUMAN_348], the enrichment score is inactive: 0.668.

For GGQYGEVYEGVWKKY [ABL1_HUMAN_257], the enrichment score was inactive: 0.598.

Regarding NIIFGVSYDEYRYRS [CFTR_HUMAN_512], the enrichment score is inactive: 1.12.

Take VDTSQVLYEWEQGFS [CTNB1_HUMAN_64]: the enrichment score is inactive: 0.629.

Turning to EPGEQPIYMNFSEPL [CLM7_HUMAN_188], the enrichment score is inactive: 0.705.

As to GKGHDGLYQGLSTAT [CD3Z_HUMAN_142], the enrichment score is inactive: 0.569.

Regarding KDREDDQYSHLQGNQ [CD3G_HUMAN_171], the enrichment score is inactive: 0.651.

In the case of TPLTPSQYASGSKAE [CENPF_HUMAN_158_YA], the enrichment score is inactive: 0.69.

As to EAEDENLYEGLNLDD [CD79A_HUMAN_188_YA], the enrichment score is inactive: 1.16.

Turning to AEIGEGAYGKVFKAR [CDK6_HUMAN_24], the enrichment score was inactive: 0.88.

In the case of DWGLAEFYHPGQEYN [CSNK2A1_HUMAN_182], the enrichment score was inactive: 0.689.

NIIFGVSYDEARARS [CFTR_HUMAN_512_YA]: the enrichment score is inactive: 0.562.

On to GHLGSEEYDVPPRLS [CBLB_HUMAN_665], for which the enrichment score is inactive: 0.532.

As for DVNIRNTYNQTALDI [CSKI2_HUMAN_253], the enrichment score is inactive: 0.557.

As to GMAEAITYADLRFVK [CD72_HUMAN_7], the enrichment score is active: 7.79.

As to EYEDENLYEGLNLDD [CD79A_HUMAN_188], the enrichment score was inactive: 1.26.

The target in another test is SHP2 N-SH2 domain T52S. Described as above. Conditions: peptide library: Human pTyr.
As to TKANQELYTTHGLIK [CC105_HUMAN_372_YA], the enrichment score is inactive: 1.

As to KRNKPTVYGVSPNYD [ABL1_HUMAN_226], the enrichment score was inactive: 0.984.

Consider GSGPQNQYGNVLSLP [CD19_HUMAN_348], for which the enrichment score is inactive: 0.545.

In the case of GGQYGEVYEGVWKKY [ABL1_HUMAN_257], the enrichment score was inactive: 0.581.

Consider NIIFGVSYDEYRYRS [CFTR_HUMAN_512], for which the enrichment score was inactive: 1.49.

In the case of VDTSQVLYEWEQGFS [CTNB1_HUMAN_64], the enrichment score is inactive: 0.729.

Turning to EPGEQPIYMNFSEPL [CLM7_HUMAN_188], the enrichment score is inactive: 0.782.

With GKGHDGLYQGLSTAT [CD3Z_HUMAN_142], the enrichment score was inactive: 0.537.

Take KDREDDQYSHLQGNQ [CD3G_HUMAN_171]: the enrichment score is inactive: 0.843.

As for TPLTPSQYASGSKAE [CENPF_HUMAN_158_YA], the enrichment score is inactive: 0.814.

EAEDENLYEGLNLDD [CD79A_HUMAN_188_YA]: the enrichment score was inactive: 1.07.

As for AEIGEGAYGKVFKAR [CDK6_HUMAN_24], the enrichment score was inactive: 0.923.

On to DWGLAEFYHPGQEYN [CSNK2A1_HUMAN_182], for which the enrichment score is inactive: 0.617.

Regarding NIIFGVSYDEARARS [CFTR_HUMAN_512_YA], the enrichment score was inactive: 0.543.

GHLGSEEYDVPPRLS [CBLB_HUMAN_665]: the enrichment score was inactive: 0.613.

DVNIRNTYNQTALDI [CSKI2_HUMAN_253]: the enrichment score was inactive: 0.589.

For the molecule GMAEAITYADLRFVK [CD72_HUMAN_7], the enrichment score is active: 5.88.

EYEDENLYEGLNLDD [CD79A_HUMAN_188]: the enrichment score is inactive: 1.49.

In another test the target is SHP2 N-SH2 domain wild-type. The test is described as above. Conditions: peptide library: Human pTyr.
Take TKANQELYTTHGLIK [CC105_HUMAN_372_YA]: the enrichment score is inactive: 1.14.

On to KRNKPTVYGVSPNYD [ABL1_HUMAN_226], for which the enrichment score was inactive: 1.03.

GSGPQNQYGNVLSLP [CD19_HUMAN_348]: the enrichment score was inactive: 0.553.

Consider GGQYGEVYEGVWKKY [ABL1_HUMAN_257], for which the enrichment score is inactive: 0.488.

Take NIIFGVSYDEYRYRS [CFTR_HUMAN_512]: the enrichment score was inactive: 1.95.

Turning to VDTSQVLYEWEQGFS [CTNB1_HUMAN_64], the enrichment score was inactive: 0.702.

In the case of EPGEQPIYMNFSEPL [CLM7_HUMAN_188], the enrichment score is inactive: 0.76.

GKGHDGLYQGLSTAT [CD3Z_HUMAN_142]: the enrichment score is inactive: 0.693.

Turning to KDREDDQYSHLQGNQ [CD3G_HUMAN_171], the enrichment score is inactive: 0.781.

Turning to TPLTPSQYASGSKAE [CENPF_HUMAN_158_YA], the enrichment score is inactive: 0.879.

As to EAEDENLYEGLNLDD [CD79A_HUMAN_188_YA], the enrichment score is inactive: 1.34.

Regarding AEIGEGAYGKVFKAR [CDK6_HUMAN_24], the enrichment score was inactive: 1.21.

Consider DWGLAEFYHPGQEYN [CSNK2A1_HUMAN_182], for which the enrichment score was inactive: 0.612.

In the case of NIIFGVSYDEARARS [CFTR_HUMAN_512_YA], the enrichment score was inactive: 0.54.

Consider GHLGSEEYDVPPRLS [CBLB_HUMAN_665], for which the enrichment score was inactive: 0.697.

As for DVNIRNTYNQTALDI [CSKI2_HUMAN_253], the enrichment score was inactive: 0.726.

For the molecule GMAEAITYADLRFVK [CD72_HUMAN_7], the enrichment score was inactive: 3.03.

Take EYEDENLYEGLNLDD [CD79A_HUMAN_188]: the enrichment score was inactive: 1.34.

The record behind these values is the supplement of paper PMC10369915.
